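The compound was tested at five concentrations on cells cultured in 96-well plates, with a 48-hour exposure period. GI50 marks 50% less growth.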 Calls of active or inactive are those of the source. No stated cut-off is given here; in the data, active = GI50 up to about 1.1 µM and inactive = higher.
What follows are compounds tested on NCI-H322M (assay: inhibition of tumour cell growth, NCI panel, 48 h).

Row | Structure (SMILES) | GI50
1 | O=C(O)c1cc(/C=C/c2ccc(O)c(O)c2)ccc1O | inactive: > 100 µM
2 | Cc1[nH]c2ccccc2c1-c1cc(-c2cc(-c3c(C)[nH]c4ccccc34)on2)no1 | inactive: > 100 µM
3 | CCOC(=O)Cn1c(C(F)(F)F)nc2nc(Cl)c(Cl)nc21 | inactive: 19.5 µM
4 | C/C(=N\NS(=O)(=O)c1ccc(C)cc1)c1c(O)cc(C)oc1=O | inactive: > 100 µM
5 | C[C@]12CCc3nn(-c4ccccc4)nc3C1CC[C@@H]1C2CC[C@]2(C)C(=O)CCC12 (stereo partly drawn) | inactive: > 100 µM
6 | CCOC(=O)c1c(SC(=O)c2cc(OC)c(OC)c(OC)c2)n(-c2ccccc2)c(=S)n(-c2ccccc2)c1=O | inactive: > 100 µM
7 | CCC(C(=O)c1ccccc1)C(CCCC(=O)Nc1c(C)cccc1C)N=O (stereo not drawn) | inactive: > 100 µM
8 | COC(=O)NC1(NC(=O)OC)NC(=O)c2cc(OC)c(OC)c(OC)c2N1 | inactive: 32 µM
9 | Cc1cc(S(=O)(=O)Nc2nc(N)nc(N3N=CCC3C)n2)c(S)cc1Cl (stereo not drawn) | inactive: > 10 µM
10 | CCOC(=O)Cn1c(=O)n(C)c(=O)c2c1ncn2Cc1ccccc1 | inactive: > 100 µM
11 | CCC/N=C(/NC(=O)c1ccc(Cl)cc1)SC | inactive: > 100 µM
12 | Cc1c(N2C(=O)C(Cl)C2c2ccc(Cl)cc2)c(=O)n(-c2ccccc2)n1C (stereo not drawn) | inactive: > 100 µM
13 | O=C(/C=C1\Nc2ccccc2N=C1NC12CC3CC(CC(C3)C1)C2)c1ccc(Br)cc1 | inactive: > 10 µM
14 | CCCCC1C(=O)N(c2ccc(S(=O)(=O)Nc3ccccn3)cc2)N(c2ccc(O)c(C(=O)O)c2)C1=O (stereo not drawn) | inactive: > 100 µM
15 | O=C1NC(Nc2ccccc2Cl)=N/C1=C\c1c(Cl)cccc1Cl | inactive: 34 µM
16 | O=[N+]([O-])[C@@H]1C2C=CC(C2)[C@H]1Cl (stereo partly drawn) | inactive: > 100 µM
17 | C#CCNC(=O)NCCCCC(NC(C)=O)C(=O)NCc1ccccc1 (stereo not drawn) | inactive: > 100 µM
18 | O=C1C(/C=N/CCc2c[nH]c3ccccc23)C(C(F)(F)F)=NN1c1nc2ccccc2s1 (stereo not drawn) | inactive: 28.3 µM
19 | O=C(Nc1ccc(Br)cc1)c1c(-c2ccccc2)c2ccc(O)cc2oc1=O | inactive: > 10 µM
20 | O=C(Nc1ccc(Cl)cc1)c1cc(S(=O)(=O)Nc2n[nH]c(=O)[nH]2)c(SSc2cc(Cl)c(C(=O)Nc3ccc(Cl)cc3)cc2S(=O)(=O)Nc2n[nH]c(=O)[nH]2)cc1Cl | inactive: > 100 µM
21 | CC(C)NC(=O)OCc1c(COC(=O)NC(C)C)c(-c2cc[n+](COC(=O)C(C)C)cc2)n2c1CCC2 | inactive: > 100 µM
22 | CC(=O)NNc1nc(-c2ccc([N+](=O)[O-])cc2)c(C#N)c(=O)n1C | inactive: 21 µM
23 | CCCC[C@H](CCc1ccccc1)N(C(=O)OC)N1CCC[C@H]1COC | inactive: 29.2 µM
24 | CCOC1OC(CO)C(O)CC1n1ccc(=O)[nH]c1=O (stereo not drawn) | inactive: > 100 µM

Row | Structure (SMILES) | GI50
25 | N#C/C(N)=C(C#N)/N=C/Nc1ccc(N)cc1 | inactive: 42.1 µM
26 | Nc1nc(NNc2cccc(F)c2)cc(=O)[nH]1 | inactive: 45.1 µM
27 | COc1cc(C=O)c(-c2cc3c(cc2C2(C)OCCS2)OCO3)c(OC)c1OC (stereo not drawn) | inactive: 15.1 µM
28 | O=C(ON=C1c2ccccc2C(Br)C(Br)c2ccccc21)c1ccccc1 (stereo not drawn) | inactive: 16.4 µM
29 | COc1ccc(/C=C(\C#N)c2nc(N)nc(N3N=C(C)CC3(C)C)n2)c(O)c1 | inactive: 17.7 µM
30 | Sc1cnnc2ccc(Br)cc12 | inactive: 59.7 µM
31 | CC1=C(C(=O)Nc2ccccc2)C(c2cccc3ccccc23)C(C(=O)Nc2ccccc2)=C(C)N1 | inactive: 32.4 µM
32 | CC(C)=CCc1c(O)c(CC=C(C)C)c2oc3c(c(=O)c2c1O)C(C=C(C)C)Oc1cc(O)ccc1-3 (stereo not drawn) | inactive: 12.7 µM
33 | O=C1/C(=C/c2ccccc2)NC(=S)N1CN1CCCCC1 | inactive: > 100 µM
34 | Cc1ccc(C2(N3CCOCC3)OC(C)(C)c3cccc4cccc2c34)cc1 (stereo not drawn) | inactive: 16.8 µM
35 | FC(F)(F)C1(Br)C(c2ccccc2)=C1c1ccccc1 | inactive: 29.5 µM
36 | O[C@H]1[C@H](O)[C@@H](O)[C@@]2(O)CC[C@@H]1N2 | inactive: > 100 µM
37 | Cc1cc(=O)n(-c2ccccc2C)c(C)n1 | inactive: > 100 µM
38 | C=C1CC(C/C=C(\C)CC2CC(=C)C(=O)O2)OC1=O (stereo not drawn) | inactive: > 100 µM
39 | CC(C)=CCc1c(O)ccc2c1OC1c3ccc(O)c(CC=C(C)C)c3OCC21 (stereo not drawn) | inactive: 13.6 µM
40 | CC(C)[C@@H](C)[C@@]1(C)C[C@@H]1[C@@H](C)[C@H]1CC[C@@H]([C@@H]2CC=C3C[C@@H](O)CC[C@]3(C)C2=O)[C@]1(C)CCO | inactive: 13 µM
41 | O=C1C=C(Nc2ccc(S(=O)(=O)Nc3nccs3)cc2)c2ccccc2C1=O | inactive: 44.9 µM
42 | COc1nc2cccc(C(O)c3ccccc3)c2nc1-c1ccccc1 (stereo not drawn) | inactive: 13.7 µM
43 | CC(C)[C@H](NC(=O)[C@@H](O)[C@H](N)Cc1ccccc1)C(=O)N[C@@H](Cc1ccccc1)C(=O)O | inactive: > 100 µM
44 | C[n+]1cn(-c2nc3ccccc3nc2[N-]S(=O)(=O)c2ccccc2)c2ccccc21 | inactive: > 100 µM
45 | CN(CCc1ccccn1)/[N+]([O-])=N/O.CNCCc1ccccn1 | inactive: > 100 µM
46 | CN(CCNC(=O)c1nn(-c2ccccc2)c2c1ccc1ccccc12)CCNC(=O)c1nn(-c2ccccc2)c2c1ccc1ccccc12 | inactive: 3.1 µM
47 | COc1ccc(/C(=N\NC(=N)N)C(c2ccc(OC)cc2)C2OC(=O)c3ccccc32)cc1 (stereo not drawn) | inactive: > 100 µM
48 | O=[N+]([O-])c1ccc(C2c3c(O)nc(O)nc3Oc3nc(O)nc(O)c32)cc1 | inactive: > 100 µM

Row | Structure (SMILES) | GI50
49 | N#COc1ccc(Oc2ccccc2)cc1 | inactive: > 100 µM
50 | Cc1cc(Cl)ccc1NC(=O)CCCC(=O)C1CCC/C1=N\NC(=O)CC#N (stereo not drawn) | inactive: > 100 µM
51 | O=C(O)c1cc2sc(C(=O)O)cc2s1 | inactive: > 100 µM
52 | COc1ccc(C[C@H](N)C(=O)N2C[C@H](CO)C[C@H](n3cnc4c(N(C)C)ncnc43)C2)cc1 | inactive: > 100 µM
53 | COc1cccc(/C=C2/Sc3scc(-c4ccccc4)[n+]3C2=O)c1O | inactive: 41.9 µM
54 | COc1ccc2sc(-n3nc4ccccc4c3Nc3nc4ccc(OC)cc4s3)nc2c1 | inactive: 2.04 µM
55 | CCO/C=N\C1=C(C#N)SC2=N/C(=C\c3ccco3)C(=O)N21 | inactive: > 100 µM
56 | N#CC(C(=O)CCC(=O)Nc1ccc(Cl)c(Cl)c1)c1ccc(Cl)cc1 (stereo not drawn) | inactive: > 100 µM
57 | O=C(/C=C/c1ccccc1)Oc1cccc(Br)c1 | inactive: > 100 µM
58 | CN(C)CC1CCCC/C1=N/OC(=O)c1ccc(Cl)cc1 (stereo not drawn) | inactive: > 100 µM
59 | CCOC(OC1=C(C#N)CCC1)C(CC)[Se]c1ccccc1 (stereo not drawn) | inactive: > 100 µM
60 | Cc1c(C)c(S(=O)(=O)N(CCCCCN)OCCCN)c(C)c2c1OC(C)(C)CC2 | inactive: 7.89 µM
61 | N#CC(c1cc(Cl)ncn1)c1nc2cc(C(F)(F)F)ccc2s1 (stereo not drawn) | inactive: 6.21 µM
62 | N=C(N)NCCCC(NC(=O)OCCCCn1ccc(N)nc1=O)C(=O)O (stereo not drawn) | inactive: > 100 µM
63 | O=c1c2c([nH]c3cc4c(cc13)OCO4)-c1ccccc1C2 | inactive: 34.8 µM
64 | COC(=O)C1=C(c2ccc(OC)c(OC)c2)OC(c2cc(OC)c(OC)c(OC)c2)C1 (stereo not drawn) | inactive: > 100 µM
65 | O=C(NC(CS)C(=O)O)c1cccc2c(=O)c3ccccc3[nH]c12 (stereo not drawn) | inactive: > 100 µM
66 | N#CC1(Cc2ccc(N)cc2)c2ccccc2C=CN1C(=O)c1ccccc1 (stereo not drawn) | inactive: > 100 µM
67 | N#CCC(=O)Nn1c(CC#N)nnc1Cc1ccccc1 | inactive: > 100 µM
68 | O=C(/C=C1\Nc2ccc([N+](=O)[O-])cc2N\C1=C/C(=O)c1ccc(F)cc1)c1ccc(F)cc1 | inactive: > 100 µM
69 | CC1=NN(c2cccc(Cl)c2)C2(SCC(=O)N2c2nc3ccccc3s2)/C1=C\c1ccccc1 (stereo not drawn) | inactive: 25.3 µM
70 | N#C/C(N)=N/c1ccccc1 | inactive: > 100 µM
71 | Cc1csc2[n+]1C(=O)/C(=C\c1ccc([N+](=O)[O-])cc1)S2 | inactive: 25.5 µM
72 | COc1ccc(-n2nnc3c(C#N)c(C)c(-c4ccccc4)n3c2=O)cc1 | inactive: 4.47 µM

Row | Structure (SMILES) | GI50
73 | C=C1C(=O)OC2CC(=C)C3CC=C(C)C3CC12 (stereo not drawn) | inactive: > 100 µM
74 | O=C(/C=C/c1cccc(Oc2ccccc2)c1)NCc1ccc(C(=O)NCCc2ccccc2)cc1 | inactive: > 100 µM
75 | CN1CN(c2ccccc2)C2(CCN(CCCN(C)c3ccc(F)cc3)CC2)C1=O | inactive: 17.9 µM
76 | Cc1cccc(C)c1Nc1nc(C)c(C(=O)CC(=O)C(=O)Nc2c(C(C)C)cccc2C(C)C)s1 | inactive: > 100 µM
77 | CSC1=N/C(=C\c2ccco2)C(=O)N1CN1CCOCC1 | inactive: > 100 µM
78 | O=C(OCCOCBr)c1ccccc1 | inactive: > 100 µM
79 | C=C(C)CC1=C(C(=S)NCCO[Si](C)(C)C(C)(C)C)C(OCC)(OCC)C1=O | inactive: 19.3 µM
80 | Cc1[nH]c2c(C)cccc2c1C1Cc2ccccc2N1 (stereo not drawn) | inactive: 25.4 µM
81 | O=C1/C(=C/c2ccc(Cl)cc2)N=C(c2ccccc2)N1c1nc2ccc(Sc3ccccc3)cc2[nH]1 | inactive: 38 µM
82 | Fc1cccc2nc(-c3ccccc3)cc(OCc3ccccc3)c12 | inactive: 97.3 µM
83 | COC(=O)C/N=C1\NC(=S)N(Cc2ccc(OC)cc2)C12CCCC2 | inactive: > 100 µM
84 | Cc1ccc(N2C(=O)C3CSCN3C2=O)cc1 (stereo not drawn) | inactive: > 100 µM
85 | Cc1ccc(S(=O)(=O)NC(=O)NCC(=O)NCC(=O)O)cc1 | inactive: > 100 µM
86 | O=S(=O)(O)c1cc(O)c2c(/N=C\c3ccccc3O)cc(S(=O)(=O)O)cc2c1 | inactive: > 100 µM
87 | COc1cc2c(cc1OCCCCCN1C(=O)c3cccc4cccc(c34)C1=O)N=C[C@@H]1CCCN1C2=O | inactive: 1.54 µM
88 | C1C[N+]23CCC[N+]2(C1)CCC3 (stereo not drawn) | inactive: > 100 µM
89 | c1ccc([I+]c2ccccc2)cc1 | inactive: > 100 µM
90 | c1ccc(-c2nc(-c3ccccc3)c(-c3ccccc3)[nH]2)cc1 | inactive: > 100 µM
91 | Cc1cccc(N(CC(=O)O)S(=O)(=O)c2ccccc2)c1 | inactive: > 100 µM
92 | O=C(CCc1cc(O)cc(O)c1)NCCc1ccc(O)c(O)c1 | inactive: > 100 µM
93 | C=CCc1cc(-c2cc(CC=C)c(O)c(CN(CC)CC)c2)cc(CN(CC)CC)c1O | inactive: 48.6 µM

From ChEMBL document CHEMBL1201862, “PubChem BioAssay data set” (2004)
